The supplement of paper PMC3334620
The full ranking holds about 33,000 sequences; the median of “E-score (-0.5 to 0.5)” is about -0.054, and the highest 2% start at about 0.35. The list shows a part of the results.

biological target: T1, Stb5 (UniProt P38699); assay: PBM E-score (8-mer binding enrichment) (E-score (-0.5 to 0.5)); higher = stronger / more preferred TF binding; most listed sequences are background and not binding sites; conditions: protein concentration: 200 nM; construct: GST-full length
T1 sequence: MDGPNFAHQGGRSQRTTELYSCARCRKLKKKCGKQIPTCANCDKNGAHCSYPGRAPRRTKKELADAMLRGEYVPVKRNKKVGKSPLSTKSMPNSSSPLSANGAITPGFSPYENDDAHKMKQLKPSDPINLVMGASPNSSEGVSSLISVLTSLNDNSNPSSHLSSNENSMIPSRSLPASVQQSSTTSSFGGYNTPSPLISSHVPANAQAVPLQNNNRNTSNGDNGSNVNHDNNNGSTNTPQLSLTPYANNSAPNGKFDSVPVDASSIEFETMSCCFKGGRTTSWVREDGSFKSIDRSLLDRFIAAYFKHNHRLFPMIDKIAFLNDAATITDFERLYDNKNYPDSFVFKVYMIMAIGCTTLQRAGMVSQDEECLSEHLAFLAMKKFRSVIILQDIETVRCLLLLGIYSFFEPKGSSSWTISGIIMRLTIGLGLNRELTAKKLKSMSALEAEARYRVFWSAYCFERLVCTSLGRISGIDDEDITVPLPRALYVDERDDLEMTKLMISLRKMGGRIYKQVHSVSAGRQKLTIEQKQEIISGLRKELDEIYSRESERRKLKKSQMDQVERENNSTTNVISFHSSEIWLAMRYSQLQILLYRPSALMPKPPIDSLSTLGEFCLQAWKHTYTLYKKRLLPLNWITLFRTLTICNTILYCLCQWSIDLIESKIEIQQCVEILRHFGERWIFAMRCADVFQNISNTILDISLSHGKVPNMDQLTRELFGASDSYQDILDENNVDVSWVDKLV
Protocol: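 Universal 'all 10-mer' protein binding microarrays (Agilent AMADID 015681) probed with GST-tagged S. cerevisiae TFs (full-length or DBD) made by in vitro transcription/translation (PURExpress), about 100-200 nM. Bound TF was detected with fluorescent anti-GST. Each ungapped 8-mer (which stands for itself and its reverse complement) is scored by the PBM enrichment score (E-score), a modified Wilcoxon-Mann-Whitney statistic from -0.5 to +0.5, computed with the Universal PBM Analysis Suite. Scale: above 0.35 generally sequence-specific binding.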

| Sequence | PBM E-score |
| --- | --- |
| AAGGACGG | 0.162 |
| CGATGTAC | 0.131 |
| CCGTTCCG | 0.295 |
| GTCTACAA | -0.349 |
| AGACCCAG | -0.291 |
| ACCCGCCA | 0.27 |
| AGCTGCCG | 0.168 |
| ACCCCAGA | -0.232 |
| GAATAATC | -0.0986 |
| CTCGGACC | 0.21 |
| CAGATTAA | 0.0823 |
| GTCTGAAA | -0.138 |
| AACCGTAA | 0.0629 |
| CTTTGTTC | 0.101 |
| GGCGCCTA | -0.013 |
| AATACGGA | 0.183 |
| TAGAGCTA | -0.218 |
| AACGAGAG | -0.107 |
| GGTCTCAC | 0.18 |
| ATGGTACG | 0.0153 |
| CCCACGGA | 0.199 |
| AGATTAAT | 0.0151 |

| Sequence | PBM E-score |
| --- | --- |
| AAGGGTGT | -0.0235 |
| AATTCGTG | -0.123 |
| ATGCACAC | -0.0814 |
| CAAAGCGA | -0.17 |
| CCTTGCTC | -0.0279 |
| CATGATAG | -0.174 |
| CGAACTTC | -0.144 |
| GGAATGCC | 0.0678 |
| AACTTACT | -0.131 |
| ACGCCAGG | -0.0421 |
| CAGCTAAC | -0.155 |
| CCGATGTC | 0.278 |
| TCATCTCA | -0.0497 |
| ATATCTTA | -0.0771 |
| ACACTGGG | -0.177 |
| ACCTAGGA | -0.139 |
| GCCGGCAA | 0.31 |
| CTATTGTA | 0.0558 |
| AAAGGGAG | -0.275 |
| CGCTTGTA | 0.151 |
| GAGTCACC | 0.0473 |
| CCCATGGA | -0.122 |

| Sequence | PBM E-score |
| --- | --- |
| CATTGAAA | 0.0729 |
| AGCTGTAC | -0.123 |
| ATTCATGG | -0.0559 |
| GCCGCTAA | 0.296 |
| ATACATGA | -0.191 |
| CGCCAAGA | 0.139 |
| CAATTCTA | -0.176 |
| ACCTGCAA | -0.143 |
| CGACCTTA | 0.175 |
| AAGTTCTA | -0.188 |
| AATAGGTA | -0.154 |
| TTATTGAA | -0.216 |
| CGGTGGCA | 0.299 |
| AGATGTGC | -0.0813 |
| AAAACCAT | 0.0207 |
| AGCACCAG | -0.177 |
| TAACGAGA | -0.104 |
| GCACCACA | -0.0487 |
| CCGCCTCC | 0.21 |
| CCGGCCCG | 0.316 |
| GGTATACA | 0.147 |
| ATAGGAAC | -0.0118 |

| Sequence | PBM E-score |
| --- | --- |
| ATACCTTG | -0.0313 |
| AAACAGAG | -0.197 |
| AGGCATAT | -0.237 |
| ACTGCAGG | -0.17 |
| GGGTTCCA | 0.0334 |
| GTGCTATA | -0.0113 |
| CTTCAAGC | -0.249 |
| GAGCCCTC | -0.312 |
| CAGAGTTA | -0.254 |
| ACGATTGA | -0.102 |
| CCACCCGA | -0.143 |
| CGACCGTA | 0.185 |
| ATAATTTA | 0.0571 |
| ACGTCCAG | -0.158 |
| AGAAGACT | -0.279 |
| CATTTGCG | 0.0176 |
| AATACTCT | -0.0192 |
| ATCCCTCA | -0.13 |
| CTAGCCAA | -0.231 |
| AGTGCGAA | -0.0384 |
| CGTACCCA | -0.111 |
| AGAATCTC | -0.00282 |

| Sequence | PBM E-score |
| --- | --- |
| TACGTTAA | -0.019 |
| ATTACGGC | 0.0616 |
| GTTGGAAA | -0.119 |
| GCTCATTA | -0.0727 |
| ATTGTTTG | -0.0353 |
| TCAGTTCA | -0.229 |
| AAGGTAAC | 0.0556 |
| ACTTGCAA | -0.00221 |
| ATGGGCAA | -0.182 |
| TGGGCACA | -0.265 |
| GTGTGAAC | -0.00609 |
| AACCCTGT | -0.125 |
| AGCCCTTG | -0.274 |
| GATTGCTA | -0.148 |
| GGGAGAAC | -0.0132 |
| TAGATCGA | -0.304 |
| CACTATCC | -0.0703 |
| CCGATGGC | 0.173 |
| AAAAAAGC | -0.0868 |
| GATCGGCA | 0.25 |
| CAATTCTG | -0.155 |
| TGCTAAAA | -0.003 |
